From PubChem BioAssay AID1159614 (National Center for Advancing Translational Sciences (NCATS), 2016)
The whole screen tested about 45,000 compounds, of which about 65 (0.1%) were called active. Calls come from the whole dose curve; as a rule, active = well fitted activation curve with a large enough effect; inconclusive = small, poorly fitted or top-dose-only effect; inactive = no such curve, though single readings can be large or run the other way. This is one part of the list.

biological target: Galactocerebrosidase (Homo sapiens) (UniProt P54803); experiment: A Novel Cell-Based Assay to Identify Small Molecules for B -Galactocerebrosidase; conditions: 145M-Twi-hGALC-G270D cells (Twitcher mouse brain line with human GALC G270D), HMU-beta-Gal fluorescence, 48 h; series mostly up to 57.5 µM; activation: at the top concentration; note: 0% is about no effect; nearly all actives have a fitted effect of over 65% in size
UniProt P54803, sequence (P54803 whole entry, looked up): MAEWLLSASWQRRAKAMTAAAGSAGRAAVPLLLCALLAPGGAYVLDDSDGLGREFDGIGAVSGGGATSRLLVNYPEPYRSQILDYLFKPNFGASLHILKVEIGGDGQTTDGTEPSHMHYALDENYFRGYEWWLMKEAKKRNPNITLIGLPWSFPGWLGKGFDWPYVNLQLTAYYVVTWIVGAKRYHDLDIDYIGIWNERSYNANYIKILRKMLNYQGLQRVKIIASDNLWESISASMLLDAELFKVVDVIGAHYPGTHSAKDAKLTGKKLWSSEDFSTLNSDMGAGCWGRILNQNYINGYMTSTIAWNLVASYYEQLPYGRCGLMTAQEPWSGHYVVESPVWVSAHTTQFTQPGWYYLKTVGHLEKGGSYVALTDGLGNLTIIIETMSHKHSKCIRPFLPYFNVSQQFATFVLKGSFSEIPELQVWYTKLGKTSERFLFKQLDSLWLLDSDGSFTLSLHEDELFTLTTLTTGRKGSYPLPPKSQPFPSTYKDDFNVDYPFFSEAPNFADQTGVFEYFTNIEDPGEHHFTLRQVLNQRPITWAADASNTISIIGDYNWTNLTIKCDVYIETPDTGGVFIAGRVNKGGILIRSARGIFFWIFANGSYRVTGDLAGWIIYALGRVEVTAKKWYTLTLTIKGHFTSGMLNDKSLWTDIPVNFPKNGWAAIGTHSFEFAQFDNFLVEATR
Excerpt: Lysosomal storage diseases (LSDs) are caused by genetic mutations in genes encoding proteins important for normal lysosomal function. Globoid cell leukodystrophy (GLD), mostly known as Krabbe disease, is a prototype of the neurological LSDs caused by deficiency of beta-galactocerebrosidase (GALC). In brain specimens of GLD patients, psychosine levels are substantially elevated. At elevated concentrations, psychosine becomes cytotoxic to neuronal cells, particularly to oligodendrocytes (OLG), neural cells responsible for myelin formation. Therefore, the biochemical disturbances in GLD are manifested by different degrees of brain demyelination resulting in a broad spectrum of neurological manifestations. Most of the FDA-approved therapies are based on enzyme replacement therapeutic (ERT) agents, which treat non-neurological symptoms of Gaucher disease, Fabry disease, few mucopolysaccharidoses and Pompe disease. Unfortunately, in GLD, a primarily neurological LSD, ERT agents, as large molecular weight molecules unable to cross the blood-brain barrier, which makes this an inefficacious therapeutic approach. In GLD, increasing the residual GALC activity just above the critical threshold (~10% of wild type enzymatic activity), the cytotoxic levels of psychosine will be reduced, avoiding the OLGs apoptosis and the subsequent demyelination process. This will translate in disease stabilization and amelioration of GLD patient symptoms.
A cell-based assay in 1,536-well plate format was developed to implement a quantitative high-throughput screening (qHTS) assay using GLD-disease relevant cells to identify small molecules that produce enhancements of the residual enzymatic activity levels of mutants GALC found and prevalent in GLD patients. Compounds that are active may therefore have some therapeutic application for GLD. After the treatment of live cells for a determined period, using a fluorescent GALC specific substrate, the mutant residual GALC activity is measured. This cell-based qTHS assay was used to screen part of the MLPCN library for small molecule able to increase the mutant GALC enzymatic activity. In this assay, increased fluorescent signal corresponds to enhanced levels of mutant GALC residual enzymatic activity. Activation is the desired outcome for this assay.
NIH Chemical Genomics Center [NCGC]
NIH Molecular Libraries Probe Centers Network [MLPCN]
Assay Submitter (PI): Gustavo Maegawa MD,PhD, University of Florida, Gainesville, FL
2)#Two cell lines were established for the assay: 145M-Twi-hGALC-G270D (brain-derived Twitcher cell line stably expressing human GALC-G270D) and 145M-Twi-hGALC-WT (same 145M-Twi stably expressing human GALC wild type). The Twitcher is the murine C57B/6 model for GLD with naturally occurring homozygous nonsense GALC mutation. The 145M-Twi cell line was established at Maegawa lab (Ribbens J et al 2014).
a.#Media: DMEM/F12 (1:1) with 10% fetal bovine-serum (FBS) with penicillin/streptomycin (PS-1X - 100 I.U./mL of penicillin+100 ug/mL of streptomycin).
b.#The 6-Hexadecanoylamino-4-methylumbelliferyl-b-D-galactoside (HMU-B-gal) substrate was prepared as per Wiederschain et al 1992. Using 20-mL borosilicate tubes, 2.20 mg of HMU-b-Gal was added in each tube to prepare substrate-film with a final air-nitrogen stream evaporation to remove all diluent solvents.
c.#The HMUb-Gal substrate buffer consists of 0.2 M Na2HPO4 (sodium phosphate dibasic)/ 0.1 M Citric Acid with the pH adjusted to 5.2 using HCl. Sodium Azide at 0.02% and Sodium Taurocholate (NaTC) at 1 mg/mL were added to this substrate buffer.
d.#The HMU-b-Gal stopping buffer consist of 0.5 M NaHCO3 (sodium bicarbonate) /0.5 M Na2CO3 (sodium carbonate). […] Triton X-100 at 0.25% was added.
4)#Preparation of HMU-b-Gal substrate tubes
Adding 18.6 mL of the HMUb-Gal substrate buffer to each 20-mL tube (2.20 mg of HMU-b-Gal) will reach a concentration of 0.2 mM. Vortex well the tube until the solution is fully homogenized (clear cloudy solution). […]

activation, inactive:
Cc1ccc(NC(=O)c2sc3nc(-c4ccc(F)cc4)cn3c2C)c(C)c1 -12.4%, COc1ccc(CCC(=O)NC2CC(=O)N(c3ccc(C)c(C)c3)C2)cc1 (configuration not stated) -11.2%, CCCCNC(=O)c1ccc2c(=O)n(-c3ccccc3)c(=O)[nH]c2c1 -5.2%, Cc1ccc(CNC(=O)c2ccc(-c3nc(CN4CCc5ccccc54)c(C)o3)cc2)cc1 -30.2%, O=C(NCc1ccc(Cl)cc1)C(=O)NCC(c1ccco1)S(=O)(=O)c1cccs1 (configuration not stated) -5.3%, Cc1cc(C)c(NC(=O)Cn2c(=O)n(CCC(=O)NCc3ccc4c(c3)OCO4)c(=O)c3ccccc32)c(C)c1 7.93%, CCOc1ccc(S(=O)(=O)Nc2ccc3c(c2)c(C(C)=O)c(C)n3S(=O)(=O)c2ccc(OCC)cc2)cc1 -33.5%, CCOC(=O)C1CCN(C(=O)CSc2c3c(nc4ccc(Cl)cc24)CCCC3)CC1 -41.6%, CC(=O)Nc1ccc(C(=O)CSc2nnc3cc(C)c4ccccc4n23)cc1 -18%, COc1cccc(NC(CNS(=O)(=O)c2ccc(C)cc2)c2ccccc2)c1 (configuration not stated) -7.73%, CCN1C(=O)c2ccccc2Sc2ccc(NC(=O)c3ccc(C)c(F)c3)cc21 -9.48%, O=C(Cn1nnc2sc3c(c2c1=O)CCCC3)Nc1ccc(F)c(Cl)c1 -7.53%, CCc1c(C)nc2nncn2c1Nc1ccc(C)c(F)c1 -11.3%, COc1ccc(C2NC(=O)NC(C)=C2C(=O)Nc2cc(C)cc(C)c2)c(OC)c1 (configuration not stated) -12.6%, Cc1ccccc1CNC(=O)CCCn1nc(C)c2sc3ccccc3c2c1=O -0.363%, Cc1cc(-c2ccc(C)c(S(=O)(=O)NCc3ccc(Cl)cc3)c2)on1 -16.5%, CCCS(=O)(=O)NCCc1csc2nc(-c3ccc(OC)cc3)nn12 -8.21%, CN(Cc1ccccc1)c1ncnc2c1nc1n2CCCC1 -9.49%, COc1ccccc1N(CC(=O)NCCSCc1ccc(Cl)cc1)S(C)(=O)=O -1.34%, CCCCOc1cccc(C(=O)Nc2cccc3ccc(C)nc23)c1 -18.4%, COc1cc(OC)cc(C(=O)Nc2ccc3nc(N4CCC(C)CC4)cc(C)c3c2)c1 -9.58%, COc1cccc(C(=O)Nc2nnc(S(=O)(=O)N3CCOCC3)s2)c1 -16.2%, Cc1ccc(CS(=O)(=O)Cc2ccc(C(=O)NCCc3ccc(Cl)cc3)o2)cc1 5.06%, COc1ccc(C2CC(=O)Nc3c2c(=O)nc2c(C)cccn32)cc1 (configuration not stated) 1.31%, Cc1ccc2oc(=O)n(CCNC(=O)Nc3ccccc3Cl)c2c1 -2.64%, O=S(=O)(O)NC1CCCCC1 -14.2%, CCOC(=O)c1c(C)[nH]c(C)c1S(=O)(=O)N1CCC(C(=O)Nc2ccccn2)CC1 3.91%, Cc1ccc2c(CC(=O)Nc3cc(C(F)(F)F)ccc3Cl)coc2c1C -20.9%, Cc1cc(C)c2c(=O)cc(C(=O)Nc3ccccc3Cl)oc2c1 -14.4%, CCC12CN3CC(CC)(CN(C1)C3c1ccc(OCc3ccccc3)cc1)C2=O (configuration not stated) -12.9%, CCc1ccc(-c2nc3c(c(SCc4ccc(F)cc4)n2)Cc2c(CO)cnc(C)c2O3)cc1 1.74%, O=c1oc2ccc(Br)cc2cc1-c1nc(-c2ccccc2)no1 -5.55%, CCC(C)NC(=O)C1CCC(CNS(=O)(=O)c2cccc3nsnc23)CC1 (configuration not stated) -11.7%, CCS(=O)(=O)N1CC(=O)N(c2ccc(C)c(C)c2)C(C)(C(=O)NC2CCCCC2)C1 (configuration not stated) -4.07%, COc1ccc(C(=O)c2oc3ccccc3c2NC(=O)COc2c(C)cc(C)cc2C)cc1 -27.2%, Cc1cccc(NC(=O)CSc2nc3c(oc4ccccc43)c(=O)n2C(C)C)c1 -7.11%, COc1ccc(N2CCN(C(c3ccccc3)c3nnc(-c4ccccc4Cl)o3)CC2)cc1 (configuration not stated) -20.2%, COCCNC(=O)CCCn1c(SCC(=O)Nc2cccc(C)c2)nc2c(sc3ccccc32)c1=O -14.4%, COc1cccc(CNC(=O)Cn2ncc3c4ccccc4n(C)c3c2=O)c1 -7.51%, CC1=C(C(=O)NCCc2ccc(Cl)cc2)C2(CCCCC2)OC1=O -12.8%, CCOc1ccc(N2CC(c3nc4ccccc4n3CC(C)C)CC2=O)cc1 (configuration not stated) -13.1%, COc1cccc(CNC(=O)c2c(O)nc3ccccn3c2=O)c1 -3.5%, COc1cc(NC(=O)CCNS(=O)(=O)c2ccc3c(c2)CCN3C(=O)C2CC2)cc(OC)c1 -6.98%, CC(C)NC[C@@H](O)COc1cccc2ccccc12 -11.7%, Cc1ccc(C)c(N2CCN(C(=O)c3ccc4c(Cl)c5c(nc4c3)CCCC5)CC2)c1 -9.82%, COc1cc(-c2noc(-c3ccc(NCCc4ccccc4)c([N+](=O)[O-])c3)n2)cc(OC)c1OC -14%, COc1cccc(-c2nc(SCc3cc(=O)c4cc(Cl)ccc4[nH]3)n[nH]2)c1 -7.18%, O=C(NCCc1ccc(Cl)cc1)c1ccc2nc(Cc3ccccc3)oc2c1 -8.12%, Cc1cc(C)c(NC(=O)CSc2nc(=O)n(Cc3ccco3)c3c2CCC3)c(C)c1 -8.48%, CC(C)Cn1c(=O)c2sccc2n2c(CCCC(=O)Nc3ccc(Cl)cc3)nnc12 -11.5%, CS(=O)(=O)c1ncc(N(Cc2ccccc2)Cc2ccco2)c(C(=O)Nc2cccc(C(F)(F)F)c2)n1 -7.18%, O=C(Cc1ccc(Cl)cc1)Nc1ccc2oc(-c3ccccc3)nc2c1 -8.33%, CCN(CC)C(=O)c1sc2c(c1C)c(=O)n(-c1ccc(C)c(C)c1)c(=O)n2CC(=O)Nc1ccc(F)cc1 -8.23%, Cc1ccc(Cl)cc1NC(=O)NC1COc2ccccc2C1 (configuration not stated) -13.4%, Cc1ccc2c(c1)c(=O)c(S(=O)(=O)c1ccc(F)cc1)cn2CC(=O)Nc1ccc2c(c1)OCO2 -0.93%, CC(C)Oc1ccc(CNC(=O)Cc2ccc(NC(=O)N3CCSc4ncccc43)cc2)cc1 -14.5%, CC(C)(C)C1CCc2c(sc(NC(=O)c3ccccc3F)c2C(=O)N2CCCCC2)C1 (configuration not stated) -13.1%, CCc1ccc(CN(Cc2ccco2)C(=O)c2cc(-c3ccc(Cl)cc3)on2)cc1 -19.3%, CCOc1ccc(-c2nonc2NC(=O)c2ccccc2C)cc1 -5.1%, Cc1cc2c(cc1S(=O)(=O)Nc1cccc(C(F)(F)F)c1)OCCN2C -13%, COc1ccc2c(Sc3ccccc3)c(C(=O)NCCN(C)C)[nH]c2c1 -18.1%, Cn1c(=O)oc2cc(S(=O)(=O)NCCC(=O)Nc3ccc(F)c(Cl)c3)ccc21 -21.9%, CC(C)CN(CCNC(=O)c1cc(=O)[nH]c2ccc(S(=O)(=O)N3CCCCCC3)cc12)CC(C)C -3.45%, Cc1ccc2[nH]c(CSc3nnc(NC(=O)COc4ccccc4F)s3)cc(=O)c2c1 -20.4%, CCOc1ccc(-c2cc3c(=O)n(CC(=O)Nc4c(C)cccc4C)ccn3n2)cc1 -16.7%, Cc1cccc(Cn2c(CNS(=O)(=O)c3ccc(Cl)s3)nc3cccnc32)c1 3.19%, CCC(Cn1nnc2ccccc2c1=O)NC(=O)Nc1cc(Cl)ccc1OC (configuration not stated) -9.5%, Cc1ccc(-n2ncc(C(=O)NCc3cccs3)c2C2CCN(C(=O)OC(C)(C)C)CC2)cc1C -6.32%, CN1CCC[C@@H]1c1cccnc1 2.18%, Cc1cccc(C2N3CC4(C(C)C)CN2CC(C(C)C)(C3)C4=O)c1 (configuration not stated) -16.4%, CCOc1ccc(NC(=O)CCCN2C(=O)C(c3ccccc3)Oc3cccnc32)cc1 (configuration not stated) -1.9%, Fc1ccc(-c2csc(-c3nc(-c4ccc(Br)s4)cs3)n2)cc1 -8.25%, CC1CCCCN1C(=O)CSc1nnc(-c2cccc(Cl)c2)o1 (configuration not stated) -5.83%, CC(=O)N1CCCc2cc(S(=O)(=O)N(C)CC(=O)Nc3ccc(F)c(Cl)c3)ccc21 -13.5%, Cc1ccc(Cl)cc1NC(=O)/C(C#N)=C/c1c(C)n(Cc2ccccc2)c2ccccc12 -15.9%, O=C(CS(=O)Cc1ccco1)NC/C=C\COc1cc(CN2CCCCC2)ccn1 (configuration not stated) -3.62%, Cc1csc2nc(-c3cccc(NC(=O)c4cccc(F)c4)c3)cn12 -29%, COc1ccc(C)cc1N(C)C(=O)c1sc2nc3n(c(=O)c2c1C)CCCCC3 -5.33%, Cc1cccc(-c2noc(CN(C(=O)c3ccc(C)c(C)c3)C(C)C)n2)c1 -40%, Cc1ccc(NC(=O)c2ncn(-c3ccccc3)n2)c(Cl)c1 -16.4%, CCN(CC)c1ccc2cc(-c3nnc(-c4cccc(Cl)c4)o3)c(=O)oc2c1 -8.49%, Cc1ccc(NC(=O)c2ccc3nc(Cc4ccccc4)oc3c2)cc1F -10.5%, CCCCN(C)CCNC(=O)Cn1ncc2c3ccccc3n(CCC)c2c1=O 10.5%, COc1cccc(NC(=O)CSc2nc(-c3ccccc3)nc3c2Cc2cc(Cl)ccc2O3)c1 -17%, Cc1ccc(C(=O)c2oc3ccccc3c2NC(=O)c2nc(S(C)(=O)=O)ncc2Cl)cc1F -16.2%, CCOc1ccc(CCNC(=O)C2=C(C)C(=O)OC23CCC(C)CC3)cc1OCC (configuration not stated) -15.2%, CCCCCn1c(=O)[nH]c2cc(C(=O)NCc3ccc(C)cc3)ccc2c1=O -11.8%, CCCOc1ccc(OC(=O)c2sc3ncn(Cc4cccc(F)c4)c(=O)c3c2C)cc1 -9.68%, O=C(c1nc(-c2ccc(Cl)cc2)n2c1CCCCC2)N1CCN(c2ccc(F)cc2)CC1 -17.6%, COc1ccccc1NC(=O)N(Cc1ccco1)C1CCN(C(C)=O)CC1 4.81%, O=S(=O)(c1ccccc1)c1nc(-c2ccc(F)cc2)oc1N1CCOCC1 -6.89%, CCOc1cc(C#N)c(NC(=O)c2ccc(OC)c(S(=O)(=O)N3CCCC3)c2)cc1OCC -11.7%, Cc1nc2cc(-c3cccc(F)c3)nn2c(C)c1CCC(=O)N1CCN(c2ccc(F)cc2)CC1 -30.7%, O=C(NCC1(c2ccccc2)CCCC1)C(=O)Nc1cccc(C(F)(F)F)c1 7.76%, CCOc1ccc(CCNC(=O)CSc2cc(=O)n(C)c3ccccc23)cc1OCC -11%, COc1ccc(-c2cc(C(=O)N3CCN(c4ccccc4OC)CC3)c3cc(C(C)C)ccc3n2)cc1 -15.5%, Cc1ccc(Cl)cc1N1CCN(C(c2ccc(F)cc2)c2nnc(-c3ccccc3)o2)CC1 (configuration not stated) -16.8%
